Test results reported in PubChem BioAssay AID686979 (National Center for Advancing Translational Sciences (NCATS), 2013).
Where “and” joins values, the source holds several entries; their conditions need not be identical. Equal values may be shown once. Hit rate of the full screen: of about 420,000 compounds, about 50,000 (12%) were called active. Inconclusive means that the source gave no clear call. Such entries were picked first, then a sample of the others. Calls come from the whole dose curve; as a rule, active = well fitted inhibition curve with a large enough effect; inconclusive = small, poorly fitted or top-dose-only effect; inactive = flat fitted curve, though single readings scatter. Potencies of inconclusive entries are doubtful fits and often do not repeat.

Test: qHTS for Inhibitors of human tyrosyl-DNA phosphodiesterase 1 (TDP1): qHTS in cells in presence of CPT; note: nearly all actives have a fitted effect of over 55% in size
Details: chicken DT40 Tdp1-/-;hTDP1 cells + 20 nM CPT, ATP luminescence, 48 h; activity change, negative = growth inhibition: at 46.2 µM (top of the series)
Outline: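 Chicken DT40 Tdp1-/- cells stably complemented with human TDP1 were seeded at 400 cells/well in medium containing 20 nM camptothecin, exposed to pin-transferred compounds, and grown at 37 °C for at least 48 hr. Viability was read as ATP luminescence.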
% is set by controls: 0 for no effect and ±100 for the full control effect; potency is the fitted concentration of half-maximal effect; tags give direction and shape of the fitted curve.

Row | SMILES | Potency | activity change, negative = growth inhibition
1 | Cc1cccc(CNC(=O)C2CCN(c3nc4ccc(Cl)cc4[nH]3)CC2)c1 | inconclusive: 20.6 µM [inhibitor, single point] | 
2 | O=C(c1nn2c(C(F)(F)F)cc(-c3ccc(F)cc3)nc2c1Cl)N1CCOCC1 | inconclusive: 29.1 µM [inhibitor, single point] | 
3 | COc1ccc(NC(=O)c2ccccc2N(Cc2ccccc2)S(C)(=O)=O)c(OC)c1 | active: 23.1 µM | 
4 | Cc1ccc(NC(=O)c2ncn(CCCNCCCc3ccccc3)n2)cc1C | inconclusive: 29.1 µM [inhibitor, single point] | 
5 | CCCC1(C(=O)OCC)NC(c2ccc(N(C)C)cc2)C2C(=O)N(c3ccc(OCC)cc3)C(=O)C21 (stereo unspecified) |  | inactive: -2.83%
6 | CCOc1cc(/C=C2\C(=O)N(CCc3ccc(OC)c(OC)c3)C(C)=C2C(=O)OC)ccc1O | inconclusive: 29.1 µM [inhibitor, single point] | 
7 | CCn1c2ccc(F)cc2c2nnc(SCCN3CCCCC3)nc21 | inconclusive: 29.1 µM [inhibitor, single point] | 
8 | CCOC(=O)c1cc(C#N)c(Oc2cccc(C(F)(F)F)c2)nc1-c1ccccc1 | inconclusive: 29.1 µM [inhibitor, single point] | 
9 | CN(C(=O)c1cccs1)c1ccc(OCC(=O)N2CCC(C(N)=O)CC2)cc1 | inconclusive: 20.6 µM [inhibitor, single point] | 
10 | CCn1cc(CN2CCC(C(=O)Nc3cccc(-c4cccc(Cl)c4)c3)CC2)cn1 | active: 16.4 µM | 
11 | CCOC(=O)C[C@H]1c2cc(F)ccc2S(=O)(=O)N1C1CCCCC1 | inactive | 
12 | O=C(Nc1ccccc1)OC1CC2CC1C1CCCC21 (stereo unspecified) | inconclusive: 16.4 µM [inhibitor, single point] | 
13 | Cc1cc(C)c2c(C)c(C(=O)N3CCC(c4nc5ccccc5s4)CC3)oc2c1 | inconclusive: 29.1 µM [inhibitor, single point] | 
14 | Cc1ccccc1-c1cnc(C(O)c2ccc(Cl)c(F)c2)[nH]1 (stereo unspecified) | active: 29.1 µM | 
15 | CC(C)C(=O)Nc1ccc(C(=O)NNC(=O)C(c2ccccc2)c2ccccc2)cc1 |  | inactive: -18.3%
16 | CC(C)Oc1ccc(C(=O)NCC2Cc3cc(F)cc(-c4cnccn4)c3O2)cc1 (stereo unspecified) | inconclusive: 23.1 µM [inhibitor, single point] | 
17 | COc1ccc(C(=O)Cn2nnc(-c3ccccc3NC(=O)C3CC3)n2)cc1 | active: 18.4 µM | 
18 | Cc1cc(C)cc(-n2c(C)cc(C=C(C#N)C#N)c2C)c1 | inconclusive: 16.4 µM [inhibitor, single point] | 
19 | CCOC(=O)C1=C(CSc2nc3c(cc2C#N)CN(C)CC3)OC(N)=C(C#N)C1c1ccc(Cl)cc1 (stereo unspecified) | inconclusive: 29.1 µM [inhibitor, single point] | 
20 | CC(=O)C1=C(O)C(=O)N(c2ccc(O)cc2)C1c1ccccc1[N+](=O)[O-] (stereo unspecified) |  | inactive: -5.25%
21 | Cc1cccc(Nc2nnc(SCC(=O)Nc3ccccc3[N+](=O)[O-])s2)c1 | inconclusive: 16.4 µM [inhibitor, partial curve, poor fit] | 

Row | SMILES | Potency | activity change, negative = growth inhibition
22 | O=C(c1ccccc1F)N(NC(=O)C(O)(c1ccccc1)c1ccccc1)c1ccccc1 | inconclusive: 29.1 µM [inhibitor, single point] | 
23 | COc1ccc(C(=O)C2CCCN(C(=O)/C=C/c3ccccn3)C2)c(C)c1 (stereo unspecified) |  | inactive: -4.3%
24 | COc1ccc(C2Nc3ccccc3-c3nnc(SC)nc3O2)cc1C (stereo unspecified) |  | inactive: 2.39%
25 | Cc1ccc(N(CCC(=O)O)S(=O)(=O)c2cccc(C(F)(F)F)c2)cc1 |  | inactive: 0.774%
26 | C[C@@H]1CC[C@H]2[C@H](C)[C@H]3CC[C@H]4C5[C@@H](O)CC6=CC(=O)CC[C@]6(C)[C@H]5C[C@H]4C3C(=O)N2C1 (stereo partly specified) | inconclusive: 0.0326 µM [inhibitor, full curve, poor fit] | 
27 | CCOC(=O)N1CCC(NS(=O)(=O)c2ccc3c(c2)OCC(=O)N3)CC1 | inconclusive: 29.1 µM [inhibitor, single point] | 
28 | Cc1nc2c3ccccc3nc(NNC(=O)CCC(=O)N3CCN(c4ccccc4F)CC3)n2n1 | inconclusive: 29.1 µM [inhibitor, single point] | 
29 | N#Cc1c(N)nc2c(c1N)CC(C(F)(F)F)O2 (stereo unspecified) |  | inactive: 0.681%
30 | Cc1ccc(CNC(=O)CSc2c3c(nc4ccc(Cl)cc24)CCCC3)o1 | inconclusive: 29.1 µM [inhibitor, single point] | 
31 | C=CCCC(=O)Nc1nc(C)c(-c2csc(Nc3ccc(Cl)cc3)n2)s1 | active: 11.6 µM | 
32 | CCOc1ccc(-n2nnnc2SCC(=O)NNC(=O)c2ccco2)cc1 | active: 16.4 µM | 
33 | C/C(=N\O)C(C)Oc1ccc(Cl)cc1 (stereo unspecified) |  | inactive: 1.99%
34 | Cc1ccc(NC(=O)CCC(=O)N2CCOc3ccccc32)c(Cl)c1 | inconclusive: 25.9 µM [inhibitor, single point] | 
35 | CC1(C)O[C@@H]2C[C@H]3[C@@H]4C[C@H](F)C5=CC(=O)C=C[C@]5(C)[C@H]4[C@@H](O)C[C@]3(C)[C@]2(C(=O)CO)O1 |  | inconclusive: -37.9% [inhibitor]
36 | Cc1ccc(S(=O)(=O)Nc2ccc3c(c2)C(=O)N([C@@H](C)CO)C[C@@H](C)[C@@H](CN(C)S(=O)(=O)c2ccccc2)OCCCC[C@H](C)O3)cc1 | active: 8.2 µM | 
37 | CCOC(=O)[C@H]1[C@H]2COc3cc(OC)ccc3[C@@H]2N2C(=O)c3ccc(F)cc3NC(=O)[C@@]12C | inconclusive: 32.6 µM [inhibitor, single point] | 
38 | CC(C)CC1Nc2ncnc(N3CCN(c4ccccn4)CC3)c2N(Cc2ccccc2)C1=O (stereo unspecified) | inconclusive: 29.1 µM [inhibitor, single point] and inconclusive: 25.9 µM [inhibitor, single point] | 
39 | CCc1ccc(N(C(=O)CCC(=O)Nc2cc(C)on2)C(C(=O)NC2CCCC2)c2ccco2)cc1 (stereo unspecified) | inconclusive: 14.6 µM [inhibitor, single point] | 
40 | CCCNC(=O)C(Cc1ccc(I)cc1)NC(=O)c1ccc2ccccc2n1 (stereo unspecified) | inconclusive: 29.1 µM [inhibitor, single point] | 
41 | O=C(CN1CCOc2ccccc21)N1CCC(Cc2ccccc2)CC1 | active: 13 µM | 
